Whole data set: some 110,000 compounds, median “z-score” near -0.1, cut for the highest 2% near 2. The list shows a part of the results.

This experiment deals with Metabotropic glutamate receptor 8 (Rattus norvegicus) (UniProt P70579). In words: rat mGluR8 modulators via GIRK flux, primary screen, cell-based, thallium flux, HTS (AID 488969). Particulars: HEK293 rat mGluR8, GIRK (G protein-gated inwardly rectifying potassium channel) thallium flux, FluoZin2; at 10 µM; stronger effect = higher value; submaximal glutamate (EC20) added with thallium.
Sequence of UniProt P70579 (P70579 whole entry, looked up): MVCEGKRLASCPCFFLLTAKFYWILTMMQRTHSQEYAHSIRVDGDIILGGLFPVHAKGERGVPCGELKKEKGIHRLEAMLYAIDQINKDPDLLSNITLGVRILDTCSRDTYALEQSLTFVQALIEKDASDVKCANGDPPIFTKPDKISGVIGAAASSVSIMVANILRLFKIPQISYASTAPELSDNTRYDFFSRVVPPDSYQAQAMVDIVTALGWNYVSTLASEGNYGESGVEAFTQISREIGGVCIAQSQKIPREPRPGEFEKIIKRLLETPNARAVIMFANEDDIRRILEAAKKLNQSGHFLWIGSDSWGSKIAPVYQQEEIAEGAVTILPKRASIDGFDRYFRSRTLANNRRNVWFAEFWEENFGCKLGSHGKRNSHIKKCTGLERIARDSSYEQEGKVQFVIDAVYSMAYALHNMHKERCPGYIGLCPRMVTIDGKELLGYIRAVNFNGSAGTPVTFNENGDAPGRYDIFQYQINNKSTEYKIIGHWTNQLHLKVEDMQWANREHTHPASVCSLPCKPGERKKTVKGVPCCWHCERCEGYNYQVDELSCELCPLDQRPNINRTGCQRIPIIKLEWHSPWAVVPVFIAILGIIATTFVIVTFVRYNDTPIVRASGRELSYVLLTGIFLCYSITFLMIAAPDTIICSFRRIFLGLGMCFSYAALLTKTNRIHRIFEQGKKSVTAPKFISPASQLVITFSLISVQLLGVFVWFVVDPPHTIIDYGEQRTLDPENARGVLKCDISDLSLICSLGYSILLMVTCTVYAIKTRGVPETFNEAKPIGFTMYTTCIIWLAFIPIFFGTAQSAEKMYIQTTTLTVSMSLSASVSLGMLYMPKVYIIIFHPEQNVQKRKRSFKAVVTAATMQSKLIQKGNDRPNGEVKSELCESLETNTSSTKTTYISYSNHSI
Turning to `Cc1ccc(C)c(NC2=CC(=O)CC(C)(C)C2)c1C#N`, the z-score is 0.559.
For `Cc1cc(C)c(Cn2cnc(-c3ccc([N+](=O)[O-])cc3)c2)c(C)c1`, the z-score was -0.0263.
The molecule `COc1cccc(C(=O)Nc2c(C(N)=O)oc3ccccc23)c1` returned a z-score of -0.199.
`CCOC(=O)c1cnc(-c2ccccc2)nc1Oc1cccc(Cl)c1`: the z-score is 1.32.
`COC(=O)C(O)(CC(=O)Nc1ccc(OC(F)(F)F)cc1)C(F)(F)F` (configuration not stated): the z-score was -0.408.
`CCOc1ccc(-n2c(-c3ccccc3)c[n+]3c2CCCCC3)cc1` gave a z-score of -0.0981.
`Cc1ccccc1OCCN1C(=O)NC2(CCc3ccccc32)C1=O` (configuration not stated): the z-score is -0.2.
`O=C(NS(=O)(=O)Oc1ccc(Cl)cc1)OC[C@@H]1CCCN2CCCC[C@H]12` gave a z-score of -0.306.
As to `COc1ccc(CCNC(=O)CSc2ccc(-c3ccccc3)nn2)cc1`, the z-score is -0.255.
For `Cc1ccsc1C=C1C(=O)c2ccccc2C1=O`, the z-score is -0.421.
The value for `COc1ccccc1-c1ccc(Nc2ccc(C(=O)N3CCOCC3)cc2)nn1` was 0.077; that for `CC(C)Oc1ccc(C(CC(=O)O)NC(=O)C2CCCCC2)cc1` (configuration not stated) was -0.827; that for `O=C(CC1Nc2ccccc2NC1=O)NCCCN1CCCCCC1` (configuration not stated) was 2.07.
Regarding `CCCOc1ccc2c(CC)cc(=O)oc2c1C`, the z-score is -0.352.
Molecule `CCOC(=O)c1ccc(N2C(=O)c3n[nH]c(-c4ccco4)c3C2c2cccc([N+](=O)[O-])c2)cc1` (configuration not stated) had a z-score of -0.049.
`O=C(CN1C(=O)NC2(CCCC2)C1=O)N1CCN(C(=O)c2ccco2)CC1`: the z-score is -1.15.
With `O=C(N/N=C/c1ccc(Br)s1)c1ccccn1`, the z-score was -0.156.
For `COCCN(Cc1cc2cc(C)ccc2nc1Cl)C(=O)Nc1ccccc1C`, the z-score worked out at 0.732.
`O=C(/C=C/c1ccc(F)cc1)N1CCN(c2ccccn2)CC1` yielded a z-score of -0.488.
The value for `Cc1ccc(/C=N/NC(=O)CC2N=C(Cc3ccccc3)NNC2=O)cc1` (configuration not stated) was 0.126; that for `COc1cc(C2C(C#N)=C(C)NC3=C2C(=O)CC(C)(C)C3)ccc1OCCO` (configuration not stated) was -0.124; that for `CCS/C(N)=N/N=C/c1cc(C)ccc1O` was -0.389.
Molecule `Cc1ccc(S(=O)(=O)NCCn2c(C)cc3ccccc32)cc1` yielded a z-score of 0.31.
`CCCC(=O)Nc1ccc(C(=O)NCCCn2ccnc2)cc1` returned a z-score of -0.152.
In the case of `CC(=O)C1C(=O)c2c(cccc2[N+](=O)[O-])C1=Nc1ccccc1C` (configuration not stated), the z-score turned out to be 0.403.
`Cc1c(Cl)cccc1NC(=S)NCc1cccs1` showed a z-score of -0.13.
Molecule `Cc1ccc(Cn2ccc(NC(=O)c3nc4ncccn4n3)n2)cc1` yielded a z-score of -0.0653.
For `CCN(CC)S(=O)(=O)c1cccc(C(=O)NC(Cc2c[nH]c3ccccc23)c2nnc3n2CCCCC3)c1` (configuration not stated) the value was -1.
For `Cc1nc(Cl)sc1C(=O)NC(C)c1ccc(Cl)cc1` (configuration not stated) the value was -0.34.
For `CCOC(=O)CN1N=C(/C=C/c2ccc(C)cc2)CCC1=O` the value was -0.0218; for `CSc1cccc(NC(=O)COc2cccc3ccccc23)c1`, -0.148.
`CCn1c(SCc2ccccc2)nnc1C1CCCCC1` came in with a z-score of -0.237.
`CCOC(=O)c1c(C=O)c(C)n(Cc2ccccc2Cl)c1C`: the z-score is -0.394.
`Cc1cc(C(=O)CSc2nnc(Nc3ccccc3F)s2)c(C)n1CC1CCCO1` (configuration not stated) gave a z-score of 1.27.
In the case of `Cc1ccc(C2=NN(CC(=O)NCc3ccco3)C(=O)CC2)cc1`, the z-score was 0.126.
The value for `COc1cccc(N2C(=O)CC(N3CCN(C(=O)c4ccco4)CC3)C2=O)c1` (configuration not stated) was -0.177.
`O=c1cc(CNc2ccc(Br)cc2)nc2sccn12` yielded a z-score of -0.22.
Turning to `Cc1ccccc1NC(=O)Cc1cn(C)c2ccccc12`, the z-score is -0.2.
`CCCC[n+]1ccn(C2=C([O-])c3ccccc3C(=O)/C2=N\S(=O)(=O)c2ccccc2)c1` showed a z-score of -0.449.
Regarding `O=c1c2ccccc2c(=O)n(Cc2ccccc2)n1Cc1ccccc1`, the z-score is -0.168.
In turn, `COc1ccc(N2CCN(CC(O)COc3ccc4c(c3)CCC4)CC2)cc1` (configuration not stated) displayed a z-score of -0.291.
The value for `Cc1ccc(-c2c3c(=O)n(C)c(=O)n(C)c3cn2-n2cnnc2)cc1` was 0.604.
In turn, `COCCSc1nnc(NC(=O)C(C)(C)C)s1` displayed a z-score of 0.0842.
In turn, `O=c1c2c(nc3cc(-c4ccc(Cl)cc4)[nH]n13)CCS2` displayed a z-score of -0.0793.
For `Cc1cccc(C)c1NC(=O)c1sccc1SCC#N` the value was -0.19; for `O=C(CSc1nnnn1-c1ccccc1)NC(=O)NCc1ccco1`, -0.258; for `CCNc1nc(Oc2ccc(=O)n(-c3ccccc3)n2)nc(N2CCOCC2)n1`, -0.851.
Molecule `Cn1c(SCc2cc(=O)[nH]c3ccccc23)nnc1-c1ccco1` had a z-score of -0.244.
With `Cc1cc(=O)n2[nH]c(COc3ccccc3)nc2n1`, the z-score was -0.647.
For `Cn1c(=O)c2c(nc(SCCN3CCOCC3)n2Cc2ccc(F)cc2)n(C)c1=O` the value was 0.0865; for `O=C(CCc1ccccc1)NC(NC(=S)Nc1ccc(Br)cc1)C(Cl)(Cl)Cl` (configuration not stated), -1.29; for `Cc1cccc(NC(=O)/C(=C\c2ccc([N+](=O)[O-])o2)NC(=O)c2ccc(Cl)cc2)c1`, -0.673.
The molecule `CCC(C)(C(=O)NC1CCCCC1)N(Cc1ccco1)C(=O)c1ccccn1` (configuration not stated) showed a z-score of -0.346.
Regarding `O=C(/C=C/c1cccc([N+](=O)[O-])c1)N1CCOCC1`, the z-score worked out at 0.0552.
In turn, `CCOC(=O)c1c(NC(=O)CSc2nnc(-c3ccc(OC)cc3)o2)sc2c1CCC2` displayed a z-score of -0.224.
Regarding `CCCn1c(SCC(=O)Nc2ccc(OCC)cc2)nnc1C(C)C`, the z-score was 0.00566.
For `O=C(Nc1ccc2c(c1)CCC2)c1ccccc1`, the z-score was -0.395.
The molecule `Cc1cc(C(=O)COC(=O)CCC(=O)c2ccc3c(c2)OCCO3)c(C)n1Cc1ccco1` registered a z-score of -1.19.
For `CC(=O)c1c(C)[nH]c(C(=O)CSc2nnc(-c3ccco3)n2Cc2ccccc2)c1C` the value was -1.03; for `Cc1cc(C(N)=O)c2ccccc2n1`, -0.302; for `Cc1ccc2cc(CN(CCN3CCCC3)C(=O)Nc3ccc(F)cc3)c(=O)[nH]c2c1C`, 2.05.
`CS(=O)(=O)N1CCN(c2ccc([N+](=O)[O-])c(N3CCOCC3)c2)CC1` came in with a z-score of -0.494.
Molecule `N#Cc1nc(-c2ccco2)oc1N1CCc2ccccc2C1` had a z-score of -1.1.
In the case of `Cc1ccc(S(=O)(=O)NCC(=O)OCN2C(=O)c3ccccc3C2=O)cc1`, the z-score turned out to be 0.0308.
For `Cn1c(-c2sccc2OCc2ccccc2)n[nH]c1=S` the value was -0.0122.
As to `O=C(NCCc1ccc(Cl)cc1)C1CCC(=O)N1Cc1ccc(F)cc1` (configuration not stated), the z-score was 0.647.
Take `CCOC(=O)N/N=C(\C)c1ccc(Br)cc1`: the z-score was found to be 0.102.
In turn, `COc1cccc(-c2nn(-c3ccccc3)cc2C(=O)OCC(=O)Nc2ncc(Cl)cc2Cl)c1` yielded a z-score of -0.115.
With `Cc1ccccc1OCC(=O)N/N=C/c1ccc([N+](=O)[O-])o1`, the z-score was 0.0773.
In turn, `CN=c1scc(-c2cc(OC)ccc2OC)n1/N=C/c1c(C)[nH]c2ccccc12` had a z-score of -0.21.
In turn, `CCOC(=O)N1CCC(Nc2nc3ccccc3n3cnnc23)CC1` registered a z-score of 0.383.
Molecule `CCCc1nc2ccccc2c(=O)n1/N=C/c1ccccc1O` yielded a z-score of -0.573.
The value for `CCCCNC(=O)c1cc(-c2ccc(F)cc2)on1` was -0.367.
In turn, `CC(=O)c1ccc(NC(=O)c2ccn(C(=O)OCC(C)C)n2)cc1` had a z-score of -0.316.
The value for `COc1cc(C)nc(OCCNC(=O)COc2ccc(Cl)cc2Cl)n1` was 0.0611; that for `COc1ccc(-c2csc(NC(=O)CN3C(=O)CCC3=O)n2)c(OC)c1` was 0.469; that for `Cc1ccc(SCC(=O)NCCSC(C)(C)C)cc1` was -0.206.
For the molecule `Cc1ccc(CNC(=O)CS(=O)(=O)CC(=O)O)cc1`, the z-score is -0.409.
For `CCOC(=O)CSc1n[nH]c(NC(=O)c2ccccc2)n1` the value was 0.788; for `CCOC(=O)c1sc2nc(C)nc(SCC(N)=O)c2c1C`, 0.749.
For the molecule `COc1cc(/C=C(\NC(C)=O)C(=O)Nc2ccccc2C)ccc1OC(C)=O`, the z-score was -0.122.
The value for `CN(C)/C=C(/C(=O)c1ccc(Cl)cc1)S(=O)(=O)c1ccccc1` was -0.0445; that for `COCCCNC(=O)c1ccc(CS(=O)(=O)Cc2cccc(C)c2)o1` was -2.42.
For the molecule `COc1ccc(C(C)C)cc1S(=O)(=O)Nc1ccc(Cl)cn1`, the z-score was -0.0815.
For the molecule `O=C(COC(=O)c1cccs1)NCC1CCCO1` (configuration not stated), the z-score was -0.27.
For `CN1CCN(S(=O)C23CC4CC(CC(C4)C2)C3)CC1` (configuration not stated) the value was -0.326; for `CCC(=O)N1c2ccc(S(=O)(=O)CCC(=O)NCCC3=CCCCC3)cc2CC1C` (configuration not stated), -0.134; for `Cc1cc(C)nc(NC(=O)Cc2ccc([N+](=O)[O-])cc2)c1`, -0.159.
The value for `CCc1ccc(CCC(=O)Nc2ccc(C(C)=O)cc2)o1` was 0.203.
For the molecule `CCOC(=O)CC1(CC(=O)OCC)NC(=O)c2c(C)sc(C(=O)OCC)c2N1`, the z-score was -0.0329.
`CCOc1nc(N=C(N)N)nc2c(C)cccc12` displayed a z-score of -0.494.
`O=C(c1ccccc1)N1CCCOC1c1ccccc1` (configuration not stated) registered a z-score of -0.0715.
Take `COc1cccc(C2/C(=C(\O)c3ccc4c(c3)OCO4)C(=O)C(=O)N2CCN(C)C)c1OC` (configuration not stated): the z-score was 0.384.
Take `CCCCn1nc2cc(C(=O)NCc3ccccc3OC)ccc2c1OCC`: the z-score was -0.532.
The molecule `COc1ccc(Cc2nnc(SC)[nH]c2=O)cc1` gave a z-score of -0.128.
Take `O=C(c1cc2ccccc2oc1=O)N1CCCC1`: the z-score was -0.118.
On to `CCOc1ccc(S(=O)(=O)N/N=C(\C)c2ccc(Cl)c(Cl)c2Cl)cc1`, for which the z-score was -0.157.
As for `N#CC1=C(N)n2c(s/c(=C\c3ccco3)c2=O)=C(C#N)C1c1ccco1` (configuration not stated), the z-score was -0.104.
Take `O=c1oc2ccccc2cc1-c1csc(Nc2nc3ccc(F)cc3s2)n1`: the z-score was -0.209.
In turn, `COc1ccc(C(C(=O)Nc2ccc3c(c2)OCO3)N(C)C(=O)Cc2c[nH]c3ccccc23)cc1` (configuration not stated) had a z-score of -0.863.
Consider `CCOc1ccc(C(=O)NC(=S)Nc2ccc(NC(=O)CC)cc2)cc1[N+](=O)[O-]`, for which the z-score was -0.224.
For `COc1ccc(NC(=O)CN(C)CC(=O)Nc2ccccc2SC)cc1` the value was -2.3; for `COc1ccc(Cn2c(CCC(=O)O)nc3cccnc32)cc1`, -0.257; for `O=C1c2ccccc2C(=O)N1CCCCSc1nnnn1-c1ccccc1`, -0.385.
Consider `O=C(CCNS(=O)(=O)c1ccc(Cl)cc1)NCc1cccnc1`, for which the z-score was determined as 0.448.
On to `CCC(C(=O)Nc1ccccc1C(=O)N1CCCC1)N1C(=O)c2ccccc2C1=O` (configuration not stated), for which the z-score is -0.213.
As for `CCOC(=O)c1c(N)sc2c(OCC)c(Br)ccc12`, the z-score stood at 0.151.
In the case of `COC(=O)/C(=C/c1c[nH]c2ccccc12)[N+](=O)[O-]`, the z-score is -0.494.
Molecule `OC(COc1cc(Cl)c(Cl)cc1Cl)CN1CCN(c2ncccn2)CC1` (configuration not stated) had a z-score of -0.154.
`CCCCNCc1ccc(SC)cc1` gave a z-score of 0.0485.
`CCN(Cc1ccccc1)S(=O)(=O)c1ccc(S(=O)(=O)N2CCN(C)CC2)cc1` registered a z-score of -0.106.
Regarding `CCC1=NN=C(c2ccc(F)cc2)C(c2c[nH]c3ccccc23)N1O` (configuration not stated), the z-score is 0.437.

These data come from PubChem BioAssay AID488969 (Vanderbilt High Throughput Screening Facility, 2010).
